PubChem BioAssay AID485313 (National Center for Advancing Translational Sciences (NCATS), 2010)
In all, about 320,000 compounds went through this assay and about 7,600 (2.4%) were called active. The shares of active, inactive and inconclusive entries below differ from those in the screen. Calls follow the shape of the dose curve; as a rule, active = well fitted activation curve with a large enough effect; inconclusive = small, poorly fitted or top-dose-only effect; inactive = no such curve, though single readings can be large or run the other way. Potencies beside an inconclusive call are fits to weak or partial responses and may not hold up.

Test: qHTS Assay for NPC1 Promoter Activators; also: nearly all actives have a fitted effect of over 60% in size;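 as to activation: reporter is driven by a mutant NPC1 promoter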
Details: Huh7 NPC1 promoter luciferase reporter, 24 h; series mostly up to 9.22 µM
Procedure, shortened: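 Quantitative HTS used a cell-based reporter: Huh7 cells stably bearing the NPC1 promoter upstream of luciferase were treated with compounds for 24 h, and promoter activation was read as luminescence.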
Potency is read from the fitted curve at half-maximal effect; tags tell the direction and shape of the fitted curve.

Potency, inactive:
C#CCSc1nnnn1-c1ccc(OCC)cc1, CCC(C)(C)C1CCC2(CC1)NC(=O)N(CC(=O)N(C)CCOc1ccc(Cl)cc1)C2=O (centres undefined), Fc1ccc(-c2cc(-c3cccs3)cc(-c3ccccc3)n2)cc1, CC(C)c1nc2ccc(Br)cn2c1NC1CCCC1, O=C(CSc1ncn[nH]1)NCCC(c1ccccc1)c1ccccc1, COCCn1c(C)cc(C(=O)COC(=O)C2CC(=O)N(CCc3ccc(OC)c(OC)c3)C2)c1C (centres undefined), CCN(CC)c1ccc(-n2c(O)c(C=C3N=c4ccccc4=N3)sc2=S)cc1, Cc1cc(-c2nnc(CCC(=O)N3CCN(Cc4cccc(F)c4)CC3)o2)c(C)o1, Cc1cccc(-c2cnn(-c3cccc([N+](=O)[O-])c3)c2N)c1, O=C(NC1=NCCS1)c1ccc(Cl)c(S(=O)(=O)N2CCOCC2)c1, Cc1cc(C)c(C)c(S(=O)(=O)N2CCCN(C)CC2)c1C, O=C(Nc1ccccc1Cl)C1CCCN(S(=O)(=O)c2ccc(-n3cnnn3)cc2)C1 (centres undefined), COc1ccc(-c2cc3c(=O)n(CC(=O)Nc4cccc(Cl)c4)ncn3n2)cc1, COCCN1C(=O)N(c2cccc(C)c2)C(=O)C1CC(=O)Nc1ccc(OC)cc1 (centres undefined), Cn1c(NCc2ccccc2)nc2c1c(=O)n(Cc1ccc(Br)cc1)c(=O)n2C, Cc1cccc(NC(=S)Nc2ccccn2)c1, COc1ccc(Cl)cc1S(=O)(=O)N1CCC(C(=O)NCc2ccccn2)CC1, Cc1nc([N+](=O)[O-])c(C(=O)OCc2ccccc2C#N)n1C, O=S(=O)(c1ccc(-c2csc(-c3cccnc3)n2)cc1)N1CCCCC1

Potency, inconclusive:
COc1cccc(NC(=O)/C=C/c2ccco2)c1 4.47 µM [activator, single point], CN1C(=O)/C(=C2\SC(N3CCCCCC3)=NC2=O)c2ccccc21 3.55 µM [activator, single point], COc1ccc(N/C=C\C(=O)c2ccc(Br)cc2)cc1OC 3.55 µM [activator, single point], COc1ccc(/C=C/C(=O)Nc2cccc(C(C)=O)c2)cc1 3.16 µM [activator, partial curve], CC(=O)Nc1ccc(-c2nnc(SCC(=O)Nc3ccc4c(c3)oc3ccccc34)n2C)cc1 3.16 µM [activator, single point], CC(C)CCC(C)NC(=O)c1ccc2nccnc2c1 (centres undefined) 3.55 µM [activator, partial curve], O=C(Nc1ccc(-c2cnco2)cc1)c1ccc(Cl)cc1 1.78 µM [activator, partial curve], CCCCCN=Cc1c(C)[nH]n(-c2nc3ccccc3s2)c1=O 0.316 µM [activator, full curve, poor fit], O=C(c1noc2c1CCc1ccccc1-2)N1CCOCC1 3.55 µM [activator, partial curve], Cc1ccc(-c2nc(C#N)c(N3CCCCC3)o2)cc1 0.447 µM [activator, partial curve], O=C(CSc1nnc(NC(=O)c2ccc(F)cc2F)s1)NC1CCCC1 3.55 µM [activator, single point], Clc1ccc(SCc2cn3cccnc3n2)cc1 2.82 µM [activator, partial curve], COc1ccc(/C(N)=N/OC(=O)c2ccc3c(c2)OCO3)cc1OC 4.47 µM [activator, single point], COc1ccc(O)c(C(=O)CC(=O)c2ccccc2C)c1 3.98 µM [activator, single point], COc1ccc(CCC(=O)Nc2ccc(-c3noc(-c4ccc(OC)c(OC)c4)n3)cc2)cc1 2.82 µM [activator, partial curve], O/N=C/c1ccccc1OCc1ccc(Cl)cc1 3.16 µM [activator, partial curve], COc1ccc(CN(C)C(=O)[C@H](Cc2ccccc2)NC(=O)c2ccco2)c(OC)c1 5.62 µM [activator, single point], O=C(COC(=O)c1ccccc1Cc1ccccc1)Nc1ccc(SC(F)F)cc1 5.62 µM [activator, single point], O=C(Nc1ccc(NC(=O)c2cccs2)c(Cl)c1)c1cccs1 2.51 µM [activator, partial curve], CCCCc1ccc(NC(=O)Nc2cccnc2)cc1 2.24 µM [activator, partial curve], Cc1ccc(SCn2nnc3ccccc3c2=O)c(C)c1 4.47 µM [activator, partial curve], COc1nc(NCCO)nc(Nc2ccccc2F)n1 3.55 µM [activator, partial curve], c1ccc(Sc2ncnc3c2oc2ccccc23)nc1 3.55 µM [activator, single point], COc1cccc(C(=O)O/N=C(\N)c2ccncc2)c1 5.62 µM [activator, single point], CCCCSc1nnc(-c2ccc(OC)cc2)n1C 2.51 µM [activator, partial curve], COCCCn1c(SCC(=O)Nc2ccc(C(C)=O)cc2)nc2ccccc2c1=O 3.55 µM [activator, partial curve], O=C(Nc1ccc2c(c1)oc1ccccc12)c1ccc(Br)o1 2.82 µM [activator, partial curve], Nc1ccc2nc(-c3cccs3)[nH]c2c1 3.16 µM [activator, single point], Cc1ccc(C2Nc3ccccc3-c3nc4ccccc4n32)o1 (centres undefined) 3.55 µM [activator, single point], Cc1cc(O)c(C(=O)Cc2csc(C)n2)c(O)c1 3.16 µM [activator, partial curve], O=c1cc(COc2ccc(Cl)c(Cl)c2)nc2sccn12 3.55 µM [activator, partial curve], O=C(c1cccs1)N(C(=O)c1cccs1)c1ccc(Br)cn1 1.26 µM [activator, partial curve], CC(=O)Nc1ccc(S(=O)(=O)NNC(=O)c2ccc(S(=O)(=O)N3CCCCC3)cc2)cc1 5.62 µM [activator, single point], O=C1CNC(=S)N1c1nc2ccccc2s1 3.98 µM [activator, single point], Cc1c(-c2nc(-c3ccc(C(F)(F)F)cc3)no2)n(C)oc1=O 0.316 µM [activator, partial curve], Clc1ccc(Cn2c(/C=C/c3ccco3)nc3ccccc32)cc1 3.98 µM [activator, single point], Cc1ccccc1NC(=O)Nc1ccccn1 5.62 µM [activator, single point], COc1ccc(N(CC(=O)NC2CCCC2)C(=O)CCC(=O)Nc2cc(C)on2)cc1 1.26 µM [activator, single point], Cc1ccc(NC(=O)c2ccoc2C)cc1C 3.16 µM [activator, single point], CN(C)C(=O)c1ccc(COc2ccccc2Br)o1 3.16 µM [activator, single point], CCn1c(SCC(=O)c2ccc3c(c2)OCCO3)nnc1C(C)C 3.16 µM [activator, single point], CCCCOC(=O)c1ccc(Nc2ncnc3nc[nH]c23)cc1 3.16 µM [activator, single point]

Potency, active:
CSCCNC(=O)c1ccc2nc(Cc3ccccc3F)oc2c1 2.51 µM, OCCCN1c2ccccc2Nc2nnc(-c3ccccc3)cc21 2.24 µM, Cc1ccccc1Nc1nc(-c2cccnc2)cs1 1.78 µM, O=C1c2ccccc2NC(c2cnc3ccccc3n2)N1O (centres undefined) 1.26 µM, N#CCCCC#Cc1ccc2c(c1)COc1c3ccccc3nn1-2 0.708 µM, COc1ccc2nc(NC(=O)CCNC(=O)c3ccco3)sc2c1 3.16 µM, CCCNC(=O)C1CC(=O)N(c2ccc(OCc3ccc(Cl)cc3)cc2)C1 (centres undefined) 1.41 µM, O=C(Nc1ccsc1C(=O)O)c1cccc(C(F)(F)F)c1 3.16 µM, Brc1ccc(-c2nnc(-c3ccccc3Br)o2)cc1 1.12 µM, Brc1ccc2nc(-c3c[nH]c4ccccc34)cn2c1 2.24 µM, CCOC(=O)c1ccc(NC(=O)N2CCc3ccccc32)cc1 1.78 µM, O=c1c(-c2ccccc2)n[nH]c2ccccc12 2.24 µM, CNc1ncc(C(=O)c2ccc(Cl)c(Cl)c2)s1 3.55 µM, C(=N\Nc1ccc2ccccc2n1)/c1ccc2c(c1)OCO2 0.316 µM, CNC(=O)/C(C#N)=C/c1ccc(-c2nc3ccccc3s2)o1 2.82 µM, Cc1ccc(-c2cn3c(n2)SCC3)cc1 2.24 µM, CC(=O)c1ccc(OCc2cc(C(=O)N3CC4C[C@@H]5CC3C[C@H](C4)C5)no2)cc1 2.51 µM, COc1ccc(-n2ncc3c(N4CCC(C(N)=O)CC4)ncnc32)cc1 3.55 µM
